Paper PMC5540273 (PLoS ONE, 2017)
For some of these results: Shown are results outside the selection of strong results, which stands elsewhere. The entries are a selection whose mix differs from that of the whole data set.

What was measured:
Settings in all cases: concentration: 1 μM,replicates: in singlicate; n = 1
ARK5 = test system: T1, ARK5
T1 construct: gene NUAK1

ASK1 = test system: T2, ASK1
T2 construct: gene MAP3K5

ASK2 = test system: T3, ASK2
T3 construct: gene MAP3K6

AURKA = test system: AURKA
AURKC = test system: AURKC
AXL = test system: AXL
BIKE = test system: T4, BIKE
T4 construct: gene BMP2K

BLK = test system: BLK
BMPR1A = test system: BMPR1A
BMPR1B = test system: BMPR1B
BMPR2 = test system: BMPR2
BMX = test system: BMX
BRAF = test system: BRAF
BRK = test system: T5, BRK
T5 construct: gene PTK6

BRSK1 = test system: BRSK1
BRSK2 = test system: BRSK2
BTK = test system: BTK
BUB1 = test system: BUB1
CAMK1B = test system: CAMK1B
AURKB = test system: AURKB
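Also: KINOMEscan kinase panel screen.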

| SMILES | %Inh (ARK5) [%] | %Inh (ASK1) [%] | %Inh (ASK2) [%] | %Inh (AURKA) [%] | %Inh (AURKC) [%] | %Inh (AXL) [%] | %Inh (BIKE) [%] | %Inh (BLK) [%] | %Inh (BMPR1A) [%] | %Inh (BMPR1B) [%] | %Inh (BMPR2) [%] | %Inh (BMX) [%] | %Inh (BRAF) [%] | %Inh (BRK) [%] | %Inh (BRSK1) [%] | %Inh (BRSK2) [%] | %Inh (BTK) [%] | %Inh (BUB1) [%] | %Inh (CAMK1B) [%] | %Inh (AURKB) [%] |
| --- | --- | --- | --- | --- | --- | --- | --- | --- | --- | --- | --- | --- | --- | --- | --- | --- | --- | --- | --- | --- |
| Cc1ccc(C)c(Oc2nccc(-c3c(-c4ccc(F)cc4)ncn3C3CCNCC3)n2)c1.O=C(O)C(F)(F)F.O=C(O)C(F)(F)F.O=C(O)C(F)(F)F [SB-284852] | 0 | 1 | 0 | 0 | 47 | 0 | 17 | 1 | 0 | 9 | 0 | 0 | 0 | 13 | 0 | 3 | 0 | 0 | 0 | – |
| COc1ccc(C2=C(Nc3cccc(Cl)c3)C(=O)NC2=O)cc1 [SB-326892] | 100 | 4 | 0 | 1 | 20 | 2 | 24 | 6 | 10 | 0 | 5 | 15 | 0 | 0 | 4 | 22 | 0 | 0 | 0 | 0 |
| O=C1NC(=O)C(c2ccc(Cl)cc2)=C1Nc1cccc(O)c1 [SB-333613] | 2 | 0 | 23 | 30 | 10 | 12 | 0 | 0 | 6 | 8 | 31 | 2 | 34 | 9 | 0 | 9 | 76 | 48 | 31 | 35 |
| O=C1NC(=O)C(c2ccccc2)=C1Nc1cc(Cl)c(O)c(Cl)c1 [SB-390530] | 0 | 0 | 0 | 9 | 23 | 0 | 33 | 0 | 21 | 22 | 45 | 0 | 0 | 0 | 0 | 0 | 26 | 0 | 7 | 13 |
| O=C1NC(=O)C(c2ccc(Cl)cc2)=C1Nc1ccc(O)c(Cl)c1 [SB-405367] | 0 | 0 | 0 | 15 | 0 | 29 | 0 | 0 | 12 | 0 | 11 | 0 | 0 | 4 | 7 | 0 | 0 | 0 | 0 | 1 |
| O=C(O)c1ccc(-c2nc(-c3ccc(F)cc3)c(-c3ccncc3)[nH]2)cc1 [SB-202620] | 46 | 23 | 0 | 40 | 0 | 19 | 0 | 36 | 15 | 33 | 21 | 0 | 89 | 0 | 0 | 17 | 0 | 11 | 0 | 32 |
| O=C1NC(=O)C(c2ccc(Cl)cc2)=C1Nc1ccccc1 [SB-317661] | 0 | 0 | 0 | 19 | 0 | 0 | 0 | 0 | 0 | 45 | 28 | 0 | 24 | 0 | 0 | 5 | 0 | 54 | 0 | 45 |
| CSc1ccc(NC2=C(c3cccc(Cl)c3)C(=O)NC2=O)cc1 [SB-341528] | 0 | 42 | 4 | 6 | 4 | 7 | 7 | 0 | 13 | 0 | 0 | 2 | 0 | 3 | 0 | 16 | 0 | 100 | 0 | 0 |
| COc1cccc(C2=C(Nc3ccc(SC)cc3)C(=O)NC2=O)c1 [SB-331032] | 0 | 12 | 0 | 28 | 0 | 0 | 31 | 23 | 0 | 7 | 45 | 0 | 24 | 0 | 0 | 0 | 0 | 20 | 19 | 25 |
| O=C1NC(=O)C(c2ccccc2Cl)=C1Nc1ccccc1 [SB-376715] | 0 | 42 | 0 | 27 | 14 | 12 | 15 | 0 | 0 | 0 | 0 | 21 | 0 | 5 | 26 | 40 | 40 | 0 | 46 | 0 |
| O=C1NC(=O)C(c2ccccc2Cl)=C1Nc1cccc(C(=O)O)c1 [SB-390526] | 0 | 9 | 5 | 8 | 0 | 0 | 0 | 14 | 0 | 0 | 1 | 12 | 0 | 12 | 9 | 0 | 4 | 9 | 39 | 15 |
| O=C1NC(=O)c2c1c(-c1ccccc1)cc1[nH]c3ccc(O)cc3c21 | 39 | 26 | 3 | 56 | 47 | 4 | 93.8 | 0 | 14 | 25 | 16 | 14 | 12 | 26 | 82 | 68 | 0 | 54 | 14 | 76 |
| O=C1NC(=O)C(c2ccc(Cl)cc2)=C1Nc1cccc(C(=O)O)c1 [SB-360737] | 3 | 12 | 15 | 1 | 12 | 0 | 18 | 0 | 4 | 0 | 19 | 0 | 3 | 2 | 0 | 0 | 0 | 39 | 26 | 15 |
| Cc1cc(C)cc(Oc2nccc(-c3c(-c4ccc(F)cc4)ncn3C3CCNCC3)n2)c1.O=C(O)C(F)(F)F.O=C(O)C(F)(F)F.O=C(O)C(F)(F)F [SB-284851] | 53 | 1 | 0 | 0 | 8 | 0 | 15 | 9 | 0 | 0 | 0 | 0 | 0 | 0 | 0 | 7 | 0 | 0 | 0 | 14 |
| CS(=O)(=O)c1ccccc1-c1nc(-c2ccc(F)cc2)c(-c2ccncc2)[nH]1 [SB-213663] | 0 | 0 | 0 | 10 | 0 | 40 | 0 | 25 | 8 | 0 | 0 | 0 | 51 | 0 | 13 | 0 | 23 | 23 | 66 | 0 |
| O=C1NC(=O)C(c2ccccc2)=C1Nc1ccc(Cl)c(C(=O)O)c1 [SB-390532] | 0 | 8 | 0 | 10 | 0 | 0 | 0 | 20 | 0 | 0 | 31 | 4 | 0 | 15 | 0 | 0 | 0 | 57 | 29 | 32 |
